Patent publication US20160067272A1, “METHODS FOR TREATING IMMUNE DISEASES” (priority 2013, published 2016)

Tested on: tryptophan hydroxylase-1 (Tph-1) and carboxypeptidase A3 (CA3)
Assay: Gene expression in CD4+ T cells (microarray, qPCR)
Type: cell-based, mouse
Details: Th0, Th1, Th2 and iTreg polarizing conditions, 96 hrs, with vs without NAD+
Description: After successive washes, RNA was eluted.

In the case of `NC(=O)c1ccc[n+]([C@@H]2O[C@H](COP(=O)([O-])OP(=O)(O)OC[C@H]3O[C@@H](n4cnc5c(N)ncnc54)[C@H](O)[C@@H]3O)[C@@H](O)[C@H]2O)c1` [NAD+, nicotinamide adenine dinucleotide], the “Tph-1 gene expression (microarray)” value is reported as “increased”.
